What was measured:
Experiment in all cases: cell-based or functional assay
[1] = molecular target: hemagglutinin (HA) of influenza virus B/Florida/04/06 (Yamagata) (influenza B virus)
[2] = molecular target: hemagglutinin (HA) of influenza virus H1N1 A/New Caledonia/20/99 (influenza A virus)
[3] = molecular target: hemagglutinin (HA) of influenza virus H3N2 A/Brisbane/10/07 (influenza A virus)
[4] = molecular target: hemagglutinin (HA) of influenza virus H3N2 A/Wisconsin/67/05 (influenza A virus)
[5] = molecular target: hemagglutinin (HA) of influenza virus H5N1 A/Vietnam/1194/04 (influenza A virus)
[6] = molecular target: hemagglutinin (HA) of influenza A/Anhui/1/13 (H7N9) (influenza A virus)
[7] = molecular target: hemagglutinin (HA) of influenza A/California/07/09 (H1N1) (influenza A virus)
[8] = molecular target: hemagglutinin (HA) of influenza A/Eurasian Wigeon/MPH571/08 (H8N4) (influenza A virus)
[9] = molecular target: hemagglutinin (HA) of influenza A/New Caledonia/20/99 (H1N1) (influenza A virus)
[10] = molecular target: hemagglutinin (HA) of influenza A/Northern Pintail/MPC2085/07 (H11N9) (influenza A virus)
[11] = molecular target: hemagglutinin (HA) of influenza A/Shanghai/2/13 (H7N9) (influenza A virus)
[12] = molecular target: hemagglutinin (HA) of influenza A/Vietnam/1194/04 (H5N1) (influenza A virus)
[13] = molecular target: hemagglutinin (HA) of influenza A/WF/HK/MPA892/06 (H4) (influenza A virus)
[14] = molecular target: hemagglutinin (HA) of influenza A/Wisconsin/67/05 (H3N2) (influenza A virus)
[15] = molecular target: hemagglutinin (HA) of influenza B/Florida/04/06 (Yamagata) (influenza B virus)
[16] = molecular target: hemagglutinin (HA) of influenza B/Harbin/7/94 (Yamagata) (influenza B virus)
[17] = molecular target: hemagglutinin (HA) of influenza B/Malaysia/2506/04 (Victoria) (influenza B virus)
[18] = molecular target: hemagglutinin (HA) of influenza A/Brisbane/10/07 (H3N2) (influenza A virus)
[19] = molecular target: hemagglutinin (HA) of influenza A/NIBRG/60 (A/mallard/Netherlands/12/00) (H7N3) (influenza A virus)

| Binder | average neutralization titer [1] [nM] | average neutralization titer [2] [nM] | average neutralization titer [3] [nM] | average neutralization titer [4] [nM] | average neutralization titer [5] [nM] | Average neutralization titers [6] [nM] | Average neutralization titers [7] [nM] | Average neutralization titers [8] [nM] | Average neutralization titers [9] [nM] | Average neutralization titers [10] [nM] | Average neutralization titers [11] [nM] | Average neutralization titers [12] [nM] | Average neutralization titers [13] [nM] | Average neutralization titers [14] [nM] | Average neutralization titers [15] [nM] | Average neutralization titers [16] [nM] | Average neutralization titers [17] [nM] | Average neutralization titers [18] [nM] | Average neutralization titers [19] [nM] |
| --- | --- | --- | --- | --- | --- | --- | --- | --- | --- | --- | --- | --- | --- | --- | --- | --- | --- | --- | --- |
| MD2615 (Fc fusion) EVQLVESGGGLVQPGGSLRLSCAVSISIFDIYAMDWYRQAPGKQRDLVATSFRDGSTNYADSVKGRFTISRDNAKNTLYLQMNSLKPEDTAVYLCHVSLYRDPLGVAGGMGVYWGKGALVTVSSAAA[gap - human IgG1 Fc]GGGGSGGGGSEVQLVESGGGLVQPGGSLRLSCAATGFTLENKAIGWFRQTPGSEREGVLCISKSGSWTYYTDSMRGRFTISRDNAENTVYLQMDSLKPEDTAVYYCATTTAGGGLCWDGTTFSRLASSWGQGTQVTVSS | 165 | 12.2 | 26.8 | 39.5 | 14.5 | – | – | – | – | – | – | – | – | – | – | – | – | – | – |
| MD2631 (Fc fusion) EVQLVESGGGLVQPGGSLRLSCAVSISIFDIYAMDWYRQAPGKQRDLVATSFRDGSTNYADSVKGRFTISRDNAKNTLYLQMNSLKPEDTAVYLCHVSLYRDPLGVAGGMGVYWGKGALVTVSSGGGGSGGGGSEVQLVESGGGLVQPGGSLRLSCAVSISIFDIYAMDWYRQAPGKQRDLVATSFRDGSTNYADSVKGRFTISRDNAKNTLYLQMNSLKPEDTAVYLCHVSLYRDPLGVAGGMGVYWGKGALVTVSSGGGGSGGGGSEVQLVESGGGLVQAGGSLKLSCAASGRTYAMGWFRQAPGKEREFVAHINALGTRTYYSDSVKGRFTISRDNAKNTEYLEMNNLKPEDTAVYYCTAQGQWRAAPVAVAAEYEFWGQGTQVTVSS[gap - human IgG1 Fc]GGGGSGGGGSEVQLVESGGGLVQPGGSLKLSCAASGFTFSTSWMYWLRQAPGKGLEWVSVINTDGGTYYADSVKDRFTISRDNAKDTLYLQMSSLKSEDTAVYYCAKDWGGPEPTRGQGTQVTVSSGGGGSGGGGSEVQLVESGGGLVQPGGSLRLSCAATGFTLENKAIGWFRQTPGSEREGVLCISKSGSWTYYTDSMRGRFTISRDNAENTVYLQMDSLKPEDTAVYYCATTTAGGGLCWDGTTFSRLASSWGQGTQVTVSS | – | – | – | – | – | 54.2 | 1.5 | 6 | 6.6 | 13.9 | 35.3 | 9.3 | 7 | 11.1 | 1.8 | 2.3 | 6.6 | – | – |
| MD2633 (Fc fusion) EVQLVESGGGLVQAGGSLKLSCAASGRTYAMGWFRQAPGKEREFVAHINALGTRTYYSDSVKGRFTISRDNAKNTEYLEMNNLKPEDTAVYYCTAQGQWRAAPVAVAAEYEFWGQGTQVTVSSGGGGSGGGGSEVQLVESGGGLVQPGGSLRLSCAVSISIFDIYAMDWYRQAPGKQRDLVATSFRDGSTNYADSVKGRFTISRDNAKNTLYLQMNSLKPEDTAVYLCHVSLYRDPLGVAGGMGVYWGKGALVTVSSGGGGSGGGGSEVQLVESGGGLVQPGGSLRLSCAVSISIFDIYAMDWYRQAPGKQRDLVATSFRDGSTNYADSVKGRFTISRDNAKNTLYLQMNSLKPEDTAVYLCHVSLYRDPLGVAGGMGVYWGKGALVTVSS[gap - human IgG1 Fc]GGGGSGGGGSEVQLVESGGGLVQPGGSLKLSCAASGFTFSTSWMYWLRQAPGKGLEWVSVINTDGGTYYADSVKDRFTISRDNAKDTLYLQMSSLKSEDTAVYYCAKDWGGPEPTRGQGTQVTVSSGGGGSGGGGSEVQLVESGGGLVQPGGSLRLSCAATGFTLENKAIGWFRQTPGSEREGVLCISKSGSWTYYTDSMRGRFTISRDNAENTVYLQMDSLKPEDTAVYYCATTTAGGGLCWDGTTFSRLASSWGQGTQVTVSS | – | – | – | – | – | 128 | 1.2 | – | 3.9 | – | 36.1 | 6.6 | 2.5 | 15.7 | 2.1 | 1 | 4.7 | – | – |
| MD2644 (Fc fusion) chain 1: EVQLVESGGGLVQPGGSLRLSCAVSISIFDIYAMDWYRQAPGKQRDLVATSFRDGSTNYADSVKGRFTISRDNAKNTLYLQMNSLKPEDTAVYLCHVSLYRDPLGVAGGMGVYWGKGALVTVSSGGGGSGGGGSEVQLVESGGGLVQPGGSLRLSCAVSISIFDIYAMDWYRQAPGKQRDLVATSFRDGSTNYADSVKGRFTISRDNAKNTLYLQMNSLKPEDTAVYLCHVSLYRDPLGVAGGMGVYWGKGALVTVSSGGGGSGGGGSEVQLVESGGGLVQAGGSLKLSCAASGRTYAMGWFRQAPGKEREFVAHINALGTRTYYSDSVKGRFTISRDNAKNTEYLEMNNLKPEDTAVYYCTAQGQWRAAPVAVAAEYEFWGQGTQVTVSS[gap - human IgG1 Fc with K409R (EU numbers)] chain 2: EVQLVESGGGLVQPGGSLKLSCAASGFTFSTSWMYWLRQAPGKGLEWVSVINTDGGTYYADSVKDRFTISRDNAKDTLYLQMSSLKSEDTAVYYCAKDWGGPEPTRGQGTQVTVSSGGGGSGGGGSEVQLVESGGGLVQPGGSLRLSCAATGFTLENKAIGWFRQTPGSEREGVLCISKSGSWTYYTDSMRGRFTISRDNAENTVYLQMDSLKPEDTAVYYCATTTAGGGLCWDGTTFSRLASSWGQGTQVTVSS[gap - human IgG1 Fc with changes] | – | – | – | – | – | 144 | 2.3 | 9 | 7.4 | 13.1 | 60.6 | 14.8 | 6.6 | 20.9 | 2.8 | 4.4 | 7.4 | – | – |
| MD2646 (Fc fusion) chain 1: EVQLVESGGGLVQAGGSLKLSCAASGRTYAMGWFRQAPGKEREFVAHINALGTRTYYSDSVKGRFTISRDNAKNTEYLEMNNLKPEDTAVYYCTAQGQWRAAPVAVAAEYEFWGQGTQVTVSSGGGGSGGGGSEVQLVESGGGLVQPGGSLRLSCAVSISIFDIYAMDWYRQAPGKQRDLVATSFRDGSTNYADSVKGRFTISRDNAKNTLYLQMNSLKPEDTAVYLCHVSLYRDPLGVAGGMGVYWGKGALVTVSSGGGGSGGGGSEVQLVESGGGLVQPGGSLRLSCAVSISIFDIYAMDWYRQAPGKQRDLVATSFRDGSTNYADSVKGRFTISRDNAKNTLYLQMNSLKPEDTAVYLCHVSLYRDPLGVAGGMGVYWGKGALVTVSS[gap - human IgG1 Fc with K409R (EU numbers)] chain 2: EVQLVESGGGLVQPGGSLKLSCAASGFTFSTSWMYWLRQAPGKGLEWVSVINTDGGTYYADSVKDRFTISRDNAKDTLYLQMSSLKSEDTAVYYCAKDWGGPEPTRGQGTQVTVSSGGGGSGGGGSEVQLVESGGGLVQPGGSLRLSCAATGFTLENKAIGWFRQTPGSEREGVLCISKSGSWTYYTDSMRGRFTISRDNAENTVYLQMDSLKPEDTAVYYCATTTAGGGLCWDGTTFSRLASSWGQGTQVTVSS[gap - human IgG1 Fc with changes] | – | – | – | – | – | 226 | 1.6 | – | 14.8 | – | 61.3 | 14.8 | 3.3 | 29.6 | 3.3 | 3.7 | 7.4 | – | – |
| MD2622 (Fc fusion) chain 1: EVQLVESGGGLVQPGGSLRLSCAVSISIFDIYAMDWYRQAPGKQRDLVATSFRDGSTNYADSVKGRFTISRDNAKNTLYLQMNSLKPEDTAVYLCHVSLYRDPLGVAGGMGVYWGKGALVTVSSGGGGSGGGGSEVQLVESGGGLVQAGGSLKLSCAASGRTYAMGWFRQAPGKEREFVAHINALGTRTYYSDSVKGRFTISRDNAKNTEYLEMNNLKPEDTAVYYCTAQGQWRAAPVAVAAEYEFWGQGTQVTVSSAAA[gap - human IgG1 Fc with K409R (EU numbers)] chain 2: EVQLVESGGGLVQPGGSLRLSCAATGFTLENKAIGWFRQTPGSEREGVLCISKSGSWTYYTDSMRGRFTISRDNAENTVYLQMDSLKPEDTAVYYCATTTAGGGLCWDGTTFSRLASSWGQGTQVTVSSAAA[gap - human IgG1 Fc with changes] | – | – | – | – | – | – | – | – | – | – | – | – | – | 28.3 | – | – | – | 28.3 | 28.3 |
| MD2611 (Fc fusion) EVQLVESGGGLVQPGGSLRLSCAVSISIFDIYAMDWYRQAPGKQRDLVATSFRDGSTNYADSVKGRFTISRDNAKNTLYLQMNSLKPEDTAVYLCHVSLYRDPLGVAGGMGVYWGKGALVTVSSGGGGSGGGGSEVQLVESGGGLVQPGGSLRLSCAATGFTLENKAIGWFRQTPGSEREGVLCISKSGSWTYYTDSMRGRFTISRDNAENTVYLQMDSLKPEDTAVYYCATTTAGGGLCWDGTTFSRLASSWGQGTQVTVSSAAA[gap - human IgG1 Fc] | 330 | 17.3 | 41.8 | 147 | 10.3 | – | – | – | – | – | – | – | – | – | – | – | – | – | – |

Source: patent US20190359693A1
